PMC12820563, “FoxP3 forms a head-to-head dimer in vivo and stabilizes its multimerization on adjacent microsatellites”
Some of the results follow.

Each sequence was assayed against T1, MBP-FoxP1dN (Mus musculus, UniProt P58462 326-579) (assay: PD-seq (MBP pull-down with sequencing); 20 mM Tris-HCl pH 7.5, 100 mM NaCl, 1.5 mM MgCl2, 0.4 uM protein, 0.1 uM dsDNA library, 30 min, room temperature, amylose pull-down; high values mean tight binding). Details: protein: recombinant; tags: His6-MBP; chain copies: 2; dsDNA, one strand shown.
T1 sequence: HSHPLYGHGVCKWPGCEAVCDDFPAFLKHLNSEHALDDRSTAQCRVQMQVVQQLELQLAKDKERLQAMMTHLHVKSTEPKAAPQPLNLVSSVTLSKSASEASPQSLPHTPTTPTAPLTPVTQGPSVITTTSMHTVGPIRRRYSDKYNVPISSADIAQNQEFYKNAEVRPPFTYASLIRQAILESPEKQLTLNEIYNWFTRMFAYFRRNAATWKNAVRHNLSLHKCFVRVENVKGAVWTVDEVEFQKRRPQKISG
Outline: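 Mouse FoxP3 or FoxP1 fragment lacking the N-terminus, His6-MBP-tagged and expressed in E. coli, was incubated at 0.4 µM with 0.1 µM Klenow-filled degenerate double-stranded DNA library for 30 min at room temperature in Tris pH 7.5 buffer with NaCl and MgCl2. Complexes captured on amylose resin were washed three times and their DNA sequenced on Illumina. Binding is reads-per-million enrichment of pull-down over input, replicates pooled.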

In order of rising binding signal:
1. GATGATTGTTCTCCCAGCTGATGAATTGGGGAGGTCGAGTAAACAAATTTTCCTAATCTTTCTGTTCAAGCGCCATCTAC  0.725 RPM ratio (pull-down/input)
2. GATGATTGTTCTCCCAGCTGATGAATTTCCGGGGTCGAGTAAACAAATTTTCCTAATCTTTCTGTTCAAGCGCCATCTAC  0.752 RPM ratio (pull-down/input)
3. GATGATTGTTCTCCCAGCTGATGAATTCTGGCTCTCGAGTAAACAAATTTTCCTAATCTTTCTGTTCAAGCGCCATCTAC  0.755 RPM ratio (pull-down/input)
4. GATGATTGTTCTCCCAGCTGATGAATTCGGAACCTCGAGTAAACAAATTTTCCTAATCTTTCTGTTCAAGCGCCATCTAC  0.757 RPM ratio (pull-down/input)
5. GATGATTGTTCTCCCAGCTGATGAATTCGAGAGATCGAGTAAACAAATTTTCCTAATCTTTCTGTTCAAGCGCCATCTAC  0.771 RPM ratio (pull-down/input)
6. GATGATTGTTCTCCCAGCTGATGAATTCGGGGGTTCGAGTAAACAAATTTTCCTAATCTTTCTGTTCAAGCGCCATCTAC  0.801 RPM ratio (pull-down/input)
7. GATGATTGTTCTCCCAGCTGATGAATTTTACCTCTCGAGTAAACAAATTTTCCTAATCTTTCTGTTCAAGCGCCATCTAC  0.807 RPM ratio (pull-down/input)
8. GATGATTGTTCTCCCAGCTGATGAATTCGGTGGTTCGAGTAAACAAATTTTCCTAATCTTTCTGTTCAAGCGCCATCTAC  0.814 RPM ratio (pull-down/input)
9. GATGATTGTTCTCCCAGCTGATGAATTCACTAAGTCGAGTAAACAAATTTTCCTAATCTTTCTGTTCAAGCGCCATCTAC  0.824 RPM ratio (pull-down/input)
10. GATGATTGTTCTCCCAGCTGATGAATTCGCGAAGTCGAGTAAACAAATTTTCCTAATCTTTCTGTTCAAGCGCCATCTAC  0.827 RPM ratio (pull-down/input)
11. GATGATTGTTCTCCCAGCTGATGAATTCTTGACGTCGAGTAAACAAATTTTCCTAATCTTTCTGTTCAAGCGCCATCTAC  0.831 RPM ratio (pull-down/input)
12. GATGATTGTTCTCCCAGCTGATGAATTAGGCGGGTCGAGTAAACAAATTTTCCTAATCTTTCTGTTCAAGCGCCATCTAC  0.832 RPM ratio (pull-down/input)
13. GATGATTGTTCTCCCAGCTGATGAATTCGGGCTTTCGAGTAAACAAATTTTCCTAATCTTTCTGTTCAAGCGCCATCTAC  0.832 RPM ratio (pull-down/input)
14. GATGATTGTTCTCCCAGCTGATGAATTTTACCTGTCGAGTAAACAAATTTTCCTAATCTTTCTGTTCAAGCGCCATCTAC  0.832 RPM ratio (pull-down/input)
15. GATGATTGTTCTCCCAGCTGATGAATTATGGCCGTCGAGTAAACAAATTTTCCTAATCTTTCTGTTCAAGCGCCATCTAC  0.834 RPM ratio (pull-down/input)
16. GATGATTGTTCTCCCAGCTGATGAATTCCCCTTTTCGAGTAAACAAATTTTCCTAATCTTTCTGTTCAAGCGCCATCTAC  0.839 RPM ratio (pull-down/input)
17. GATGATTGTTCTCCCAGCTGATGAATTCAACTGGTCGAGTAAACAAATTTTCCTAATCTTTCTGTTCAAGCGCCATCTAC  0.842 RPM ratio (pull-down/input)
18. GATGATTGTTCTCCCAGCTGATGAATTTCGACTTTCGAGTAAACAAATTTTCCTAATCTTTCTGTTCAAGCGCCATCTAC  0.852 RPM ratio (pull-down/input)
19. GATGATTGTTCTCCCAGCTGATGAATTTTTTCGGTCGAGTAAACAAATTTTCCTAATCTTTCTGTTCAAGCGCCATCTAC  0.853 RPM ratio (pull-down/input)
20. GATGATTGTTCTCCCAGCTGATGAATTCTGCTAGTCGAGTAAACAAATTTTCCTAATCTTTCTGTTCAAGCGCCATCTAC  0.857 RPM ratio (pull-down/input)
21. GATGATTGTTCTCCCAGCTGATGAATTGAAAGCTTCGAGTAAACAAATTTTCCTAATCTTTCTGTTCAAGCGCCATCTAC  0.86 RPM ratio (pull-down/input)
22. GATGATTGTTCTCCCAGCTGATGAATTGGATGACTCGAGTAAACAAATTTTCCTAATCTTTCTGTTCAAGCGCCATCTAC  0.865 RPM ratio (pull-down/input)
23. GATGATTGTTCTCCCAGCTGATGAATTCCTTGAATCGAGTAAACAAATTTTCCTAATCTTTCTGTTCAAGCGCCATCTAC  0.874 RPM ratio (pull-down/input)
24. GATGATTGTTCTCCCAGCTGATGAATTCATTTCGTCGAGTAAACAAATTTTCCTAATCTTTCTGTTCAAGCGCCATCTAC  0.877 RPM ratio (pull-down/input)
25. GATGATTGTTCTCCCAGCTGATGAATTCGCACGTTCGAGTAAACAAATTTTCCTAATCTTTCTGTTCAAGCGCCATCTAC  0.887 RPM ratio (pull-down/input)
26. GATGATTGTTCTCCCAGCTGATGAATTGACTAGGTCGAGTAAACAAATTTTCCTAATCTTTCTGTTCAAGCGCCATCTAC  0.889 RPM ratio (pull-down/input)
27. GATGATTGTTCTCCCAGCTGATGAATTGAGGCGCTCGAGTAAACAAATTTTCCTAATCTTTCTGTTCAAGCGCCATCTAC  0.896 RPM ratio (pull-down/input)
28. GATGATTGTTCTCCCAGCTGATGAATTCTGATCATCGAGTAAACAAATTTTCCTAATCTTTCTGTTCAAGCGCCATCTAC  0.901 RPM ratio (pull-down/input)
29. GATGATTGTTCTCCCAGCTGATGAATTACGGCGCTCGAGTAAACAAATTTTCCTAATCTTTCTGTTCAAGCGCCATCTAC  0.907 RPM ratio (pull-down/input)
30. GATGATTGTTCTCCCAGCTGATGAATTCGGCGTATCGAGTAAACAAATTTTCCTAATCTTTCTGTTCAAGCGCCATCTAC  0.924 RPM ratio (pull-down/input)
31. GATGATTGTTCTCCCAGCTGATGAATTTTACATGTCGAGTAAACAAATTTTCCTAATCTTTCTGTTCAAGCGCCATCTAC  0.94 RPM ratio (pull-down/input)
32. GATGATTGTTCTCCCAGCTGATGAATTGGAGACATCGAGTAAACAAATTTTCCTAATCTTTCTGTTCAAGCGCCATCTAC  0.957 RPM ratio (pull-down/input)
33. GATGATTGTTCTCCCAGCTGATGAATTAATCTTTTCGAGTAAACAAATTTTCCTAATCTTTCTGTTCAAGCGCCATCTAC  0.96 RPM ratio (pull-down/input)
34. GATGATTGTTCTCCCAGCTGATGAATTAAATAGGTCGAGTAAACAAATTTTCCTAATCTTTCTGTTCAAGCGCCATCTAC  0.96 RPM ratio (pull-down/input)
35. GATGATTGTTCTCCCAGCTGATGAATTTGTCCAGTCGAGTAAACAAATTTTCCTAATCTTTCTGTTCAAGCGCCATCTAC  0.963 RPM ratio (pull-down/input)
36. GATGATTGTTCTCCCAGCTGATGAATTAAAGATTTCGAGTAAACAAATTTTCCTAATCTTTCTGTTCAAGCGCCATCTAC  0.971 RPM ratio (pull-down/input)
37. GATGATTGTTCTCCCAGCTGATGAATTGTCCGTGTCGAGTAAACAAATTTTCCTAATCTTTCTGTTCAAGCGCCATCTAC  0.972 RPM ratio (pull-down/input)
38. GATGATTGTTCTCCCAGCTGATGAATTATCTTGATCGAGTAAACAAATTTTCCTAATCTTTCTGTTCAAGCGCCATCTAC  0.974 RPM ratio (pull-down/input)
39. GATGATTGTTCTCCCAGCTGATGAATTTTTCGTGTCGAGTAAACAAATTTTCCTAATCTTTCTGTTCAAGCGCCATCTAC  0.984 RPM ratio (pull-down/input)
40. GATGATTGTTCTCCCAGCTGATGAATTAACTAATTCGAGTAAACAAATTTTCCTAATCTTTCTGTTCAAGCGCCATCTAC  0.998 RPM ratio (pull-down/input)
41. GATGATTGTTCTCCCAGCTGATGAATTAGTGGTGTCGAGTAAACAAATTTTCCTAATCTTTCTGTTCAAGCGCCATCTAC  0.998 RPM ratio (pull-down/input)
42. GATGATTGTTCTCCCAGCTGATGAATTGTTCCTGTCGAGTAAACAAATTTTCCTAATCTTTCTGTTCAAGCGCCATCTAC  0.999 RPM ratio (pull-down/input)
43. GATGATTGTTCTCCCAGCTGATGAATTGCGTGGGTCGAGTAAACAAATTTTCCTAATCTTTCTGTTCAAGCGCCATCTAC  1.01 RPM ratio (pull-down/input)
44. GATGATTGTTCTCCCAGCTGATGAATTATCGCACTCGAGTAAACAAATTTTCCTAATCTTTCTGTTCAAGCGCCATCTAC  1.01 RPM ratio (pull-down/input)
45. GATGATTGTTCTCCCAGCTGATGAATTGGATTGTTCGAGTAAACAAATTTTCCTAATCTTTCTGTTCAAGCGCCATCTAC  1.02 RPM ratio (pull-down/input)
46. GATGATTGTTCTCCCAGCTGATGAATTATAAGATTCGAGTAAACAAATTTTCCTAATCTTTCTGTTCAAGCGCCATCTAC  1.02 RPM ratio (pull-down/input)
47. GATGATTGTTCTCCCAGCTGATGAATTTATCCTGTCGAGTAAACAAATTTTCCTAATCTTTCTGTTCAAGCGCCATCTAC  1.03 RPM ratio (pull-down/input)
48. GATGATTGTTCTCCCAGCTGATGAATTTATTAGGTCGAGTAAACAAATTTTCCTAATCTTTCTGTTCAAGCGCCATCTAC  1.05 RPM ratio (pull-down/input)
49. GATGATTGTTCTCCCAGCTGATGAATTGTCCAATTCGAGTAAACAAATTTTCCTAATCTTTCTGTTCAAGCGCCATCTAC  1.05 RPM ratio (pull-down/input)
50. GATGATTGTTCTCCCAGCTGATGAATTGTCGGTATCGAGTAAACAAATTTTCCTAATCTTTCTGTTCAAGCGCCATCTAC  1.05 RPM ratio (pull-down/input)
51. GATGATTGTTCTCCCAGCTGATGAATTACCATCATCGAGTAAACAAATTTTCCTAATCTTTCTGTTCAAGCGCCATCTAC  1.08 RPM ratio (pull-down/input)
52. GATGATTGTTCTCCCAGCTGATGAATTAACAAGCTCGAGTAAACAAATTTTCCTAATCTTTCTGTTCAAGCGCCATCTAC  1.09 RPM ratio (pull-down/input)
53. GATGATTGTTCTCCCAGCTGATGAATTTGTACCGTCGAGTAAACAAATTTTCCTAATCTTTCTGTTCAAGCGCCATCTAC  1.12 RPM ratio (pull-down/input)
54. GATGATTGTTCTCCCAGCTGATGAATTACATGCCTCGAGTAAACAAATTTTCCTAATCTTTCTGTTCAAGCGCCATCTAC  1.14 RPM ratio (pull-down/input)
55. GATGATTGTTCTCCCAGCTGATGAATTTGCATACTCGAGTAAACAAATTTTCCTAATCTTTCTGTTCAAGCGCCATCTAC  1.15 RPM ratio (pull-down/input)
56. GATGATTGTTCTCCCAGCTGATGAATTGATTTTGTCGAGTAAACAAATTTTCCTAATCTTTCTGTTCAAGCGCCATCTAC  1.16 RPM ratio (pull-down/input)
57. GATGATTGTTCTCCCAGCTGATGAATTGCACGCTTCGAGTAAACAAATTTTCCTAATCTTTCTGTTCAAGCGCCATCTAC  1.17 RPM ratio (pull-down/input)
58. GATGATTGTTCTCCCAGCTGATGAATTAGCAAAATCGAGTAAACAAATTTTCCTAATCTTTCTGTTCAAGCGCCATCTAC  1.19 RPM ratio (pull-down/input)
59. GATGATTGTTCTCCCAGCTGATGAATTATTAAAATCGAGTAAACAAATTTTCCTAATCTTTCTGTTCAAGCGCCATCTAC  1.32 RPM ratio (pull-down/input)
60. GATGATTGTTCTCCCAGCTGATGAATTGACAATCTCGAGTAAACAAATTTTCCTAATCTTTCTGTTCAAGCGCCATCTAC  1.38 RPM ratio (pull-down/input)
61. GATGATTGTTCTCCCAGCTGATGAATTATGTGTGTCGAGTAAACAAATTTTCCTAATCTTTCTGTTCAAGCGCCATCTAC  1.4 RPM ratio (pull-down/input)
62. GATGATTGTTCTCCCAGCTGATGAATTTATTTTATCGAGTAAACAAATTTTCCTAATCTTTCTGTTCAAGCGCCATCTAC  1.46 RPM ratio (pull-down/input)
63. GATGATTGTTCTCCCAGCTGATGAATTTTATGTATCGAGTAAACAAATTTTCCTAATCTTTCTGTTCAAGCGCCATCTAC  1.71 RPM ratio (pull-down/input)
